From the supplement of paper PMC6531468
Some of the results follow. Read counts after selection give these values, which scatter widely. Each score is taken over the longer molecules that contain the sequence shown.

Assays:
Assay in all cases: 6-mer SELEX enrichment z-score vs GST control; IMP3 is the RNA-binding protein IGF2BP3; higher = more enriched by binding
IMP3 KH1-4 = conditions: construct: KH1-4 (164-579); SELEX round: R4
Procedure: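 SELEX-seq with GST-tagged IMP3 KH1-4 (Pro164-Lys579) and an N40 RNA pool, round 4. 6-mer z-score of sequence-tag enrichment normalised to the corresponding GST SELEX round; RNA k-mers written as DNA (T for U).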

IMP3 RRM1-2 = conditions: construct: RRM1-2 (1-163); SELEX round: R2
Sequence of IMP3 RRM1-2 (chain, as listed by the source): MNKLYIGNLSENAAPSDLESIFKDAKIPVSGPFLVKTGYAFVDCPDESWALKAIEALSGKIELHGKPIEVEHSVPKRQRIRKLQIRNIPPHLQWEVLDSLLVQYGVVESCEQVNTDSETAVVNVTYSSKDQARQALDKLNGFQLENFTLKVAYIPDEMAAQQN
Procedure: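 SELEX-seq with GST-tagged IMP3 RRM1-2 (Met1-Asn163) and an N40 RNA pool, round 2. 6-mer enrichment z-score normalised to GST SELEX. RNA written as DNA (T = U).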

IMP3 full-length = IMP3 full-length (UniProt O00425); conditions: construct: FL IMP3 (1-579); SELEX round: R4
Sequence of UniProt O00425 (O00425 whole entry): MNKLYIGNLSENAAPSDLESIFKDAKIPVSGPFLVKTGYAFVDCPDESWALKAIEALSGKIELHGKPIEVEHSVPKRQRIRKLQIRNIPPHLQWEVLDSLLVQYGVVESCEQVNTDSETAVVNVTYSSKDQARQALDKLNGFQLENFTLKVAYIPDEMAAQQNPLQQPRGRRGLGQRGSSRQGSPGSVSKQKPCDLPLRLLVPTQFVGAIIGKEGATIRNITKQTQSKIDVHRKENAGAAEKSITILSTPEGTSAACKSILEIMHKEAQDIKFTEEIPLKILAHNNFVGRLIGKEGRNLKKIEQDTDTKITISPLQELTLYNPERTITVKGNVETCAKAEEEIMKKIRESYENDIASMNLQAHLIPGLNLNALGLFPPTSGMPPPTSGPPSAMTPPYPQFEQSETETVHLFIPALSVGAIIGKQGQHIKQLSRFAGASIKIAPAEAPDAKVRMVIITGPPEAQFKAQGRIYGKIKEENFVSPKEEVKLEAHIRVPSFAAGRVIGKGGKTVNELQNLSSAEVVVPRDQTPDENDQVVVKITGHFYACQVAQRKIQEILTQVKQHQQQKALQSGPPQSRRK
Procedure: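 SELEX-seq with GST-tagged full-length IMP3 and an N40 RNA pool, round 4. Each 6-mer is scored as an enrichment z-score of sequence tags containing it, normalised to the matching GST SELEX round. RNA written as DNA (T = U).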

IMP3 KH1-2 = conditions: construct: KH1-2 (164-376); SELEX round: R4
Sequence of IMP3 KH1-2 (chain, as listed by the source): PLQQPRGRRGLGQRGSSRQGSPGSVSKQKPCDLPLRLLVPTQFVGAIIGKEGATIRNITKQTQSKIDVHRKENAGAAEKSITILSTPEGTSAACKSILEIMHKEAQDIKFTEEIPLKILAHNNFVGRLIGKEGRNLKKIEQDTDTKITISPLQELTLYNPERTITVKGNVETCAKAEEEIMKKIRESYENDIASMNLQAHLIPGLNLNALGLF
Procedure: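 SELEX-seq with GST-tagged IMP3 KH1-2 (Pro164-Phe376) and an N40 RNA pool, round 4 (stringent 300/600 mM KCl washes). 6-mer z-score of sequence-tag enrichment normalised to the corresponding GST SELEX round; RNA k-mers written as DNA (T for U).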

IMP3 KH3-4 = conditions: construct: KH3-4 (377-579); SELEX round: R4
Sequence of IMP3 KH3-4 (chain, as listed by the source): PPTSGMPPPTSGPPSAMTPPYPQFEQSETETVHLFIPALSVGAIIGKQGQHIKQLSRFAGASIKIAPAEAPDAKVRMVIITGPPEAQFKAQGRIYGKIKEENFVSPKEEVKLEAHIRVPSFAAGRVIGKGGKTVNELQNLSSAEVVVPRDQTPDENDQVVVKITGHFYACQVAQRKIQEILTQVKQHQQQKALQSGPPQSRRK
Procedure: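 SELEX-seq with GST-tagged IMP3 KH3-4 (Pro377-Lys579) and an N40 RNA pool, round 4. 6-mer z-score of sequence-tag enrichment normalised to the corresponding GST SELEX round; RNA k-mers written as DNA (T for U).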

Sequence of IMP3 KH1-4 (chain, as listed by the source): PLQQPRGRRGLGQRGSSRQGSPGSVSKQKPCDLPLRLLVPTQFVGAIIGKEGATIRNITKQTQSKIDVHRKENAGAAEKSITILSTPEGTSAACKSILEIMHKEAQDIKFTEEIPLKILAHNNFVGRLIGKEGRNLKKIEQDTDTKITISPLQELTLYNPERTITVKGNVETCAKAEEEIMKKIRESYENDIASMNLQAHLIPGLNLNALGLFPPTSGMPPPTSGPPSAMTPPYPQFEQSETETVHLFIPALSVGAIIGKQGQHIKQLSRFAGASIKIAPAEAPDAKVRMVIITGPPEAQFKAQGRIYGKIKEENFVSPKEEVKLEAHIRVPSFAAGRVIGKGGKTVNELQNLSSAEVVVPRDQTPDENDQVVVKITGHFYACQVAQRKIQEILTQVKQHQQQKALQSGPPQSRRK

Question: TGGGAC was tested. Which “6-mer SELEX enrichment z-score” value (IMP3 KH1-4) did it give?
Answer: Its value is -0.22.

Question: And the “6-mer SELEX enrichment z-score” value (IMP3 RRM1-2)?
Answer: Its value is 0.

Question: And the “6-mer SELEX enrichment z-score” value (IMP3 full-length)?
Answer: Its value is -0.038.

Question: And the “6-mer SELEX enrichment z-score” value (IMP3 KH1-2)?
Answer: The value was -0.195.

Question: And the “6-mer SELEX enrichment z-score” value (IMP3 KH3-4)?
Answer: The value was -0.189.

Question: For CCCTTT, which “6-mer SELEX enrichment z-score” value (IMP3 KH1-4) is on record?
Answer: Its value is 0.59.

Question: And the “6-mer SELEX enrichment z-score” value (IMP3 RRM1-2)?
Answer: The value was -0.067.

Question: And the “6-mer SELEX enrichment z-score” value (IMP3 full-length)?
Answer: The value was -0.173.

Question: What about the “6-mer SELEX enrichment z-score” value (IMP3 KH1-2) of the same sequence?
Answer: Its value is 0.405.

Question: And the “6-mer SELEX enrichment z-score” value (IMP3 KH3-4)?
Answer: Its value is 0.054.

Question: Which results are given for AGCGTA?
Answer: 6-mer SELEX enrichment z-score (IMP3 KH1-4): -5.06; 6-mer SELEX enrichment z-score (IMP3 RRM1-2): -0.632; 6-mer SELEX enrichment z-score (IMP3 full-length): -2.98; 6-mer SELEX enrichment z-score (IMP3 KH1-2): -4.7; 6-mer SELEX enrichment z-score (IMP3 KH3-4): -4.55

Question: What does the source list for CCTAGA?
Answer: 6-mer SELEX enrichment z-score (IMP3 KH1-4): -0.899; 6-mer SELEX enrichment z-score (IMP3 RRM1-2): -0.875; 6-mer SELEX enrichment z-score (IMP3 full-length): -1.1; 6-mer SELEX enrichment z-score (IMP3 KH1-2): -0.904; 6-mer SELEX enrichment z-score (IMP3 KH3-4): -0.932

Question: How did the “6-mer SELEX enrichment z-score” value (IMP3 KH1-4) turn out when ATAAAT was run?
Answer: Its value is 1.97.

Question: What about the “6-mer SELEX enrichment z-score” value (IMP3 RRM1-2) of the same sequence?
Answer: Its value is -0.598.

Question: What about the “6-mer SELEX enrichment z-score” value (IMP3 full-length) of the same sequence?
Answer: The value was 0.1.

Question: What about the “6-mer SELEX enrichment z-score” value (IMP3 KH1-2) of the same sequence?
Answer: The value was 1.9.

Question: What about the “6-mer SELEX enrichment z-score” value (IMP3 KH3-4) of the same sequence?
Answer: The value was 3.01.

Question: How did the “6-mer SELEX enrichment z-score” value (IMP3 KH1-4) turn out when TTTCGC was run?
Answer: Its value is 0.089.

Question: What about the “6-mer SELEX enrichment z-score” value (IMP3 RRM1-2) of the same sequence?
Answer: The value was 0.325.

Question: And the “6-mer SELEX enrichment z-score” value (IMP3 full-length)?
Answer: The value was -0.053.

Question: And the “6-mer SELEX enrichment z-score” value (IMP3 KH1-2)?
Answer: The value was 0.062.

Question: What about the “6-mer SELEX enrichment z-score” value (IMP3 KH3-4) of the same sequence?
Answer: Its value is 0.006.

Question: For TTCAAC, which “6-mer SELEX enrichment z-score” value (IMP3 KH1-4) is on record?
Answer: Its value is 0.405.

Question: What about the “6-mer SELEX enrichment z-score” value (IMP3 RRM1-2) of the same sequence?
Answer: Its value is 1.16.

Question: And the “6-mer SELEX enrichment z-score” value (IMP3 full-length)?
Answer: Its value is 0.733.

Question: And the “6-mer SELEX enrichment z-score” value (IMP3 KH1-2)?
Answer: Its value is 0.525.

Question: What about the “6-mer SELEX enrichment z-score” value (IMP3 KH3-4) of the same sequence?
Answer: The value was 0.145.

Question: With CAGTCG as the sequence, how does the “6-mer SELEX enrichment z-score” value (IMP3 KH1-4) read?
Answer: The value was 1.38.

Question: And the “6-mer SELEX enrichment z-score” value (IMP3 RRM1-2)?
Answer: The value was 0.35.

Question: What about the “6-mer SELEX enrichment z-score” value (IMP3 full-length) of the same sequence?
Answer: Its value is 1.36.

Question: What about the “6-mer SELEX enrichment z-score” value (IMP3 KH1-2) of the same sequence?
Answer: The value was 0.97.

Question: And the “6-mer SELEX enrichment z-score” value (IMP3 KH3-4)?
Answer: The value was 0.634.

Question: CCGTGT was tested. Which “6-mer SELEX enrichment z-score” value (IMP3 KH1-4) did it give?
Answer: The value was -0.225.

Question: And the “6-mer SELEX enrichment z-score” value (IMP3 RRM1-2)?
Answer: Its value is -0.186.

Question: And the “6-mer SELEX enrichment z-score” value (IMP3 full-length)?
Answer: Its value is -0.1.

Question: And the “6-mer SELEX enrichment z-score” value (IMP3 KH1-2)?
Answer: The value was -0.268.

Question: And the “6-mer SELEX enrichment z-score” value (IMP3 KH3-4)?
Answer: The value was -0.361.

Question: For TCGATG, which “6-mer SELEX enrichment z-score” value (IMP3 KH1-4) is on record?
Answer: Its value is -0.507.

Question: And the “6-mer SELEX enrichment z-score” value (IMP3 RRM1-2)?
Answer: Its value is -0.15.

Question: And the “6-mer SELEX enrichment z-score” value (IMP3 full-length)?
Answer: The value was -0.281.

Question: What about the “6-mer SELEX enrichment z-score” value (IMP3 KH1-2) of the same sequence?
Answer: The value was -0.508.

Question: And the “6-mer SELEX enrichment z-score” value (IMP3 KH3-4)?
Answer: The value was -0.349.

Question: Which “6-mer SELEX enrichment z-score” value (IMP3 KH1-4) does the source give for TCGTGT here?
Answer: The value was -0.322.

Question: And the “6-mer SELEX enrichment z-score” value (IMP3 RRM1-2)?
Answer: The value was 0.331.

Question: And the “6-mer SELEX enrichment z-score” value (IMP3 full-length)?
Answer: Its value is -0.139.

Question: And the “6-mer SELEX enrichment z-score” value (IMP3 KH1-2)?
Answer: The value was -0.297.

Question: And the “6-mer SELEX enrichment z-score” value (IMP3 KH3-4)?
Answer: The value was -0.196.

Question: Which results are given for GGTACC?
Answer: 6-mer SELEX enrichment z-score (IMP3 KH1-4): -0.766; 6-mer SELEX enrichment z-score (IMP3 RRM1-2): 0.337; 6-mer SELEX enrichment z-score (IMP3 full-length): 0.212; 6-mer SELEX enrichment z-score (IMP3 KH1-2): -0.654; 6-mer SELEX enrichment z-score (IMP3 KH3-4): -0.632

Question: For ACTGTT, which “6-mer SELEX enrichment z-score” value (IMP3 KH1-4) is on record?
Answer: Its value is 0.356.

Question: What about the “6-mer SELEX enrichment z-score” value (IMP3 RRM1-2) of the same sequence?
Answer: The value was 0.008.

Question: What about the “6-mer SELEX enrichment z-score” value (IMP3 full-length) of the same sequence?
Answer: The value was -0.109.

Question: What about the “6-mer SELEX enrichment z-score” value (IMP3 KH1-2) of the same sequence?
Answer: Its value is 0.359.

Question: What about the “6-mer SELEX enrichment z-score” value (IMP3 KH3-4) of the same sequence?
Answer: Its value is 0.198.

Question: Which results are given for CTAAAG?
Answer: 6-mer SELEX enrichment z-score (IMP3 KH1-4): -0.621; 6-mer SELEX enrichment z-score (IMP3 RRM1-2): -0.74; 6-mer SELEX enrichment z-score (IMP3 full-length): -0.892; 6-mer SELEX enrichment z-score (IMP3 KH1-2): -0.667; 6-mer SELEX enrichment z-score (IMP3 KH3-4): -0.36

Question: AGTCCC was tested. Which “6-mer SELEX enrichment z-score” value (IMP3 KH1-4) did it give?
Answer: The value was -0.272.

Question: What about the “6-mer SELEX enrichment z-score” value (IMP3 RRM1-2) of the same sequence?
Answer: Its value is -0.435.

Question: What about the “6-mer SELEX enrichment z-score” value (IMP3 full-length) of the same sequence?
Answer: The value was -0.171.

Question: What about the “6-mer SELEX enrichment z-score” value (IMP3 KH1-2) of the same sequence?
Answer: Its value is -0.333.

Question: And the “6-mer SELEX enrichment z-score” value (IMP3 KH3-4)?
Answer: Its value is -0.865.

Question: With TGCGAC as the sequence, how does the “6-mer SELEX enrichment z-score” value (IMP3 KH1-4) read?
Answer: Its value is -0.55.

Question: What about the “6-mer SELEX enrichment z-score” value (IMP3 RRM1-2) of the same sequence?
Answer: The value was -0.38.

Question: And the “6-mer SELEX enrichment z-score” value (IMP3 full-length)?
Answer: Its value is -0.302.

Question: And the “6-mer SELEX enrichment z-score” value (IMP3 KH1-2)?
Answer: The value was -0.628.

Question: What about the “6-mer SELEX enrichment z-score” value (IMP3 KH3-4) of the same sequence?
Answer: The value was -0.765.

Question: Which “6-mer SELEX enrichment z-score” value (IMP3 KH1-4) does the source give for CACTGG here?
Answer: Its value is 0.16.

Question: And the “6-mer SELEX enrichment z-score” value (IMP3 RRM1-2)?
Answer: The value was 0.609.

Question: What about the “6-mer SELEX enrichment z-score” value (IMP3 full-length) of the same sequence?
Answer: The value was 0.736.

Question: And the “6-mer SELEX enrichment z-score” value (IMP3 KH1-2)?
Answer: Its value is 0.093.

Question: What about the “6-mer SELEX enrichment z-score” value (IMP3 KH3-4) of the same sequence?
Answer: The value was -0.19.

Question: Which “6-mer SELEX enrichment z-score” value (IMP3 KH1-4) does the source give for CGACGC here?
Answer: Its value is -1.73.

Question: And the “6-mer SELEX enrichment z-score” value (IMP3 RRM1-2)?
Answer: Its value is -0.519.

Question: What about the “6-mer SELEX enrichment z-score” value (IMP3 full-length) of the same sequence?
Answer: Its value is -0.657.

Question: What about the “6-mer SELEX enrichment z-score” value (IMP3 KH1-2) of the same sequence?
Answer: The value was -1.46.

Question: And the “6-mer SELEX enrichment z-score” value (IMP3 KH3-4)?
Answer: Its value is -1.73.

Question: Which results are given for TAAAAC?
Answer: 6-mer SELEX enrichment z-score (IMP3 KH1-4): -0.259; 6-mer SELEX enrichment z-score (IMP3 RRM1-2): -1.57; 6-mer SELEX enrichment z-score (IMP3 full-length): -1.62; 6-mer SELEX enrichment z-score (IMP3 KH1-2): -0.127; 6-mer SELEX enrichment z-score (IMP3 KH3-4): 0.438

Question: Which results are given for AAACAC?
Answer: 6-mer SELEX enrichment z-score (IMP3 KH1-4): 0.497; 6-mer SELEX enrichment z-score (IMP3 RRM1-2): 2.1; 6-mer SELEX enrichment z-score (IMP3 full-length): 0.493; 6-mer SELEX enrichment z-score (IMP3 KH1-2): 1.18; 6-mer SELEX enrichment z-score (IMP3 KH3-4): 0.537
